Measured values published in publication PMC4336329 (PLoS ONE, 2015).
About 2,200 (0.71%) of roughly 310,000 compounds showed an effect of 50% or more. The effect is printed as a negative number. This is one part of the list.

Biological target: human ether-à-go-go-related gene (hERG) potassium channel (human, UniProt Q12809)
Experiment: primary screen, population patch clamp on CHO cells stably expressing hERG

Sequence of human ether-à-go-go-related gene (hERG) potassium channel (Q12809 whole entry, looked up): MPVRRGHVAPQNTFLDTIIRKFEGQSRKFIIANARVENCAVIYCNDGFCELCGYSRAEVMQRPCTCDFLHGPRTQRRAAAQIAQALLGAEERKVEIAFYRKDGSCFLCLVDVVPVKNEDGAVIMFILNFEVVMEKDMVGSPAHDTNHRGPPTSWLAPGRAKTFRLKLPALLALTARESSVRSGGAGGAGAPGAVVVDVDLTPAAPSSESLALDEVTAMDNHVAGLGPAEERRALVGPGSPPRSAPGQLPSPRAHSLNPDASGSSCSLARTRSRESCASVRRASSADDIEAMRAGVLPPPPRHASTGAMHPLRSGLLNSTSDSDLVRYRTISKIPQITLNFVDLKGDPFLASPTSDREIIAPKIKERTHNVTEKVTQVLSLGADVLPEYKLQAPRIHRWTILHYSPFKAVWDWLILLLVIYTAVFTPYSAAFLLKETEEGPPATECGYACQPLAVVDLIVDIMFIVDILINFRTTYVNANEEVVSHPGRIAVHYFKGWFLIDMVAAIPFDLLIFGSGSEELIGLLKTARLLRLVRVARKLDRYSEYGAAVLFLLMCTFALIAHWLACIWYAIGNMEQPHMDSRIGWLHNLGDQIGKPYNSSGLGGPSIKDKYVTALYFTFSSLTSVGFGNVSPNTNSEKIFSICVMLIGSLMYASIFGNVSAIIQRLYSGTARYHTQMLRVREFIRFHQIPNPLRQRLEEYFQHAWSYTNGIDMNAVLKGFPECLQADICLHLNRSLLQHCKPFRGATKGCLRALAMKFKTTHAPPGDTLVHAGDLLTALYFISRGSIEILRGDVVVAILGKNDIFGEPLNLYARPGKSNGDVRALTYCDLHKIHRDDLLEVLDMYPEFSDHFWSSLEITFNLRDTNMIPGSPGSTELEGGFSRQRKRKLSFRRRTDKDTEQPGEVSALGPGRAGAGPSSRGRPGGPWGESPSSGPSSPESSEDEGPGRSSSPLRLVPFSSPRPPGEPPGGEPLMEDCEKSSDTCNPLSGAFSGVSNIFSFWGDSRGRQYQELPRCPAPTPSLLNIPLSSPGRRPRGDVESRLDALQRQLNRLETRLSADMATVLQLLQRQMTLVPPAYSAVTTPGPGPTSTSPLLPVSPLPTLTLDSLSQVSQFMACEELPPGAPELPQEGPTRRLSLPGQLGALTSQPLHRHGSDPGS

Compound | hERG current change (%, negative = inhibition) at 1uM [%]
CCOc1cc(C2C(C(C)=O)=C(O)C(=O)N2CCc2c[nH]c3ccccc23)ccc1O (centres unmarked) | 14.7
O=C1Nc2ccc(S(=O)(=O)N3CCCC3)c3ccc(S(=O)(=O)N4CCCC4)c1c23 | -1.32
Cc1ccccc1NC(=O)CSc1nnc(CNC(=O)c2ccco2)n1C | -0.407
COCC1CCCCN1C(=O)c1ccc(OC2CCN(CCc3ccccc3)CC2)cc1 (centres unmarked) | -13.2
Cl.O=C(Nc1cc(F)cc(F)c1)c1ccc(NCCCN2CCCCCC2)c([N+](=O)[O-])c1 | -7.14
COC(=O)c1ccc(Nc2nc(-c3ccncc3)nc3ccccc23)cc1 | 17.6
CCN(CC(=O)Nc1ccccc1C(F)(F)F)C(=O)C1=COCCO1 | 15.6
O=C(Cn1cnc2ccccc21)OCC(=O)N1CCCc2ccccc21 | 14.9
CCCCNC(=O)c1cn(CC)c2ccc(S(=O)(=O)N3CCCC3)cc2c1=O | 6.36
Cc1ccc(C(OCC(O)CNC(C)c2ccccc2)c2ccccc2)cc1 (centres unmarked) | -2.79
CCN1CCN(S(=O)(=O)c2ccc(Cl)c(C(=O)N(CC)CC(=O)Nc3ccc(OC)cc3)c2)CC1 | 15.3
COc1cc(CCC(=O)OCn2nnc3ccccc3c2=O)cc(OC)c1OC | 13.7
Cc1cc(NC(=O)CCC(=O)N(CC(=O)NC2CCCC2)Cc2ccccc2Cl)no1 | 12.6
c1ccc(Nc2c(-c3ccco3)nc3ccccn23)cc1 | 9.85
C#Cc1ccc([C@@H]2C=C(C(=O)NC3CC3)O[C@H](OCCCCO)C2)cc1 | 12.2
Cc1ccc(S(=O)(=O)n2cnc3ccccc32)c(C)c1 | 2.96
CC(=O)c1c(C)[nH]c(C(=O)Nc2nccs2)c1C | 3.07
CC(C)CN(C(=O)COC(=O)COc1ccc2c(c1)CCC2)c1c(N)n(Cc2ccccc2)c(=O)[nH]c1=O | 14.8
O=C1c2cccc3cccc(c23)C(=O)N1c1ccc(O)cc1 | 10.1

Compound | hERG current change (%, negative = inhibition) at 1uM [%]
Cc1c(C#N)c(SCC(N)=O)nc2c1CCCC2 | 2.32
CCS(=O)(=O)N1CCN(CC2CC3C=CC2C3)CC1 (centres unmarked) | 14.9
Cc1nn(-c2ccccc2)c2c1CC1(C(=O)N(C)C(=O)N(C)C1=O)C1CCCCN21 (centres unmarked) | 16.5
Cc1cccc(NC(=O)CCCc2ccccc2)c1C | 8.97
O=c1[nH]c(Cc2ccccn2)nc2scc(-c3ccc(Cl)cc3)c12 | 12.3
O=C(CSc1nnc(NC(=O)C2CC(=O)N(c3ccccc3)C2)s1)NC1CCCC1 (centres unmarked) | 5.63
Cn1c(SCC(=O)NCc2ccccc2)nc2c([nH]c3ccccc32)c1=O | 8.98
O=C(O)C1CCN(Cc2cnn(-c3ccccc3)c2-n2cccc2)CC1 | 5.96
COc1ccc(CCNC(=O)C2CC(c3ccccc3[N+](=O)[O-])=NO2)cc1 (centres unmarked) | 2.1
CCc1cccc2sc(N3CCN(C(=O)c4ccc([N+](=O)[O-])o4)CC3)nc12 | -8.03
CCCCn1c(-c2csc(CC)c2)n[nH]c1=S | 16.8
NS(=O)(=O)c1ccc(CCNC(=O)CNC(=O)C2CCCCC2)cc1 | 14.4
C=C(C)C(=O)Nc1cccc(C2=NOC3(C2)C[C@H](C(N)=O)N(C(=O)/C=C/C)C3)c1 (some centres unmarked) | 8.88
COc1ccc(C(=O)N2CCN(C(=O)c3ccc(-c4ccccc4)cc3)CC2)cc1OC | 4.46
O=C(O)c1ccccc1SC1CC(=O)N(C2CCCCC2)C1=O (centres unmarked) | 7.63
Cc1ccccc1-n1c(SCc2c(C)noc2C)nnc1-c1ccncc1 | 10.2
CCOC(=O)CSc1ccc(C(=O)Nc2ccc(Cl)cc2)cn1 | 11.6
COc1ccc2cc3c(N)nn(C(=O)c4ccc(Cl)c([N+](=O)[O-])c4)c3nc2c1 | 6.35
CCC(Oc1ccccc1OC)C(=O)N1CC(=O)Nc2ccccc21 (centres unmarked) | 2.9

Compound | hERG current change (%, negative = inhibition) at 1uM [%]
O=C(CSc1nnc(CNC(=O)c2cccs2)o1)Nc1ccc(Cl)cc1 | 9.65
CCOCC(=O)Nc1ccccc1C(=O)O | 15.2
Cc1ccc(C2CC(=O)NC(SCc3ccccc3)=C2C#N)cc1 (centres unmarked) | 14.6
O=C(Nc1cccc(Cl)c1N1CCCCC1)c1ccc2c(c1)OCCO2 | 11.8
COc1cc(/C=N/n2nnnc2N)ccc1OCC#N | 17.1
COc1ccc(C(C)C)cc1S(=O)(=O)N1CCC(C(=O)NCC2CCCO2)CC1 (centres unmarked) | 8.66
CC(=O)c1cnc2nc(C(F)(F)F)nn2c1C | 6.36
CC(=O)C(Sc1nn(C)c(=S)s1)C(=O)Nc1ccccc1 (centres unmarked) | 2.83
COc1ccc(-c2onc3ccc(C(C)=O)cc23)cc1 | 4.32
O=C(COc1ccc2c(-c3ccccc3)cc(=O)oc2c1)Nc1ccc(CCO)cc1 | 7.49
O=c1c2ccc([N+](=O)[O-])cc2ncn1CCOc1cccc(Br)c1 | 8.55
Cc1ccccc1-n1c(SCC(=O)c2c(N)n(C)c(=O)n(C)c2=O)nnc1-c1cccnc1 | 8.77
CCC(C)C(NC(=O)/C(=C\c1ccccc1)NC(=O)c1ccc(OC)cc1)C(=O)O (centres unmarked) | 20
CC(=O)Nc1cccc(CCc2nc3ccccc3[nH]2)c1 | 6.69
COCC(=O)Nc1ccc2c(c1)OCC(=O)N2Cc1ccc(C)cc1 | 1.26
Cc1nnc(SCCC(=O)Nc2ccccc2Cl)o1 | 7.85
Cc1ccc(-c2nn3c(C)nnc3s2)cc1NC(=O)COc1ccc(Cl)cc1 | -74.3
O=C(CCS(=O)(=O)c1ccc(Br)cc1)NC1CCCC1 | 12.7
